Molecules are shown by their SMILES. The campaign covered roughly 310,000 compounds. About 14,000 (4.5%) showed an effect of 50% or more. The effect is printed as a negative number. The list shows a part of the results.

Consider 43 molecules from article PMC4336329 (PLoS ONE, 2015).
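Also: peak tail current of the secondary pulse compared with the same well before compound.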

For the assay, the target named is human ether-à-go-go-related gene (hERG) potassium channel (human, UniProt Q12809). Nature of the assay: primary screen, population patch clamp on CHO cells stably expressing hERG.
human ether-à-go-go-related gene (hERG) potassium channel, sequence (Q12809 whole entry, looked up): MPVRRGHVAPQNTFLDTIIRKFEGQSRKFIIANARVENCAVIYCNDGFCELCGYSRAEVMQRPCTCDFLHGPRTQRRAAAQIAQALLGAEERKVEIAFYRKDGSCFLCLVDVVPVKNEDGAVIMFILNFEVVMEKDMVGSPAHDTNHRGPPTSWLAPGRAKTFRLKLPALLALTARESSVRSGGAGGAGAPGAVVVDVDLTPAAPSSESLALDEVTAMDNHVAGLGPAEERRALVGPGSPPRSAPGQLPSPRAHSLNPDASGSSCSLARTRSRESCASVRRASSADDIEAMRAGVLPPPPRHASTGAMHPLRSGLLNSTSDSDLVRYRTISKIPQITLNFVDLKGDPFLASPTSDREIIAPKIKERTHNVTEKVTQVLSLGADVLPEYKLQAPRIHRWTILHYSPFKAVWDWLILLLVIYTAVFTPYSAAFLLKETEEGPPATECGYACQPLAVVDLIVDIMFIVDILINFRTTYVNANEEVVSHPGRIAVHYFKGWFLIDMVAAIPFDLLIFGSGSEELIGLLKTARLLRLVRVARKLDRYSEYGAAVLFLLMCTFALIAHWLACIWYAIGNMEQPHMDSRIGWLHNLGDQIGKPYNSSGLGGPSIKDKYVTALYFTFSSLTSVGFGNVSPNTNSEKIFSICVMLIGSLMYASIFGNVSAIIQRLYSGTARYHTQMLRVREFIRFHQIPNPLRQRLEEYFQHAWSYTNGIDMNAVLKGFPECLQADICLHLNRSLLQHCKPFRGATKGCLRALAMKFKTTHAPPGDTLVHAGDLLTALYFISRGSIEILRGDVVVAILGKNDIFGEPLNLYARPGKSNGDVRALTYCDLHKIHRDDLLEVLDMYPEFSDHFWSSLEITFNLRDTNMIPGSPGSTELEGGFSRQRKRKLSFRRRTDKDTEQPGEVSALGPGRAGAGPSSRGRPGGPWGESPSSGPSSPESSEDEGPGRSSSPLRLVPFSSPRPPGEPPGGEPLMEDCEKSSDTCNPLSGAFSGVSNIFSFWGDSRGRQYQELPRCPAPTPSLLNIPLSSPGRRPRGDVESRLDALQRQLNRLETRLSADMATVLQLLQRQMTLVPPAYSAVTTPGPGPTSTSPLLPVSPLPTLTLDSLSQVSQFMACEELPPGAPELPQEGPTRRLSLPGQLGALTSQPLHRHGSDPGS
For `CC(NC(=O)c1ccc([N+](=O)[O-])cc1Cl)C1CC2CCC1C2` (stereo not shown), the “hERG current change (%, negative = inhibition) at 10uM” value is listed as -58.2%. On to `COc1ccc(S(=O)(=O)N2CCCCC2)cc1NC(=O)CCNC(=O)c1ccc(Br)cc1`, for which the “hERG current change (%, negative = inhibition) at 10uM” value is reported as 14.6%. In the case of `Cn1cnc([N+](=O)[O-])c1Sc1ncnc2nc[nH]c12`, the “hERG current change (%, negative = inhibition) at 10uM” value amounted to 1.46%. With `CC(=O)Nc1ccc(S(=O)(=O)NCC2CCC(C(=O)NCCc3ccccc3)CC2)cc1` (stereo not shown), the “hERG current change (%, negative = inhibition) at 10uM” value turned out to be 9.92%. Consider `Cc1cccc(C(=O)NCC(=O)N2CCN(S(=O)(=O)c3ccc4c(c3)OCCO4)CC2)c1`, for which the “hERG current change (%, negative = inhibition) at 10uM” value is recorded as -20.4%.

As for `COCCCNC(=O)C1CCN(S(=O)(=O)c2c(C)noc2/C=C\c2ccc(OC)cc2)CC1`, the “hERG current change (%, negative = inhibition) at 10uM” value was -18.1%. Regarding `CC(C)NCc1cccc([N+](=O)[O-])c1.O=C(O)C(=O)O`, the “hERG current change (%, negative = inhibition) at 10uM” value was 3.39%. For `O=C(CCN1C(=O)c2ccccc2C1=O)NCCCn1ccnc1`, the “hERG current change (%, negative = inhibition) at 10uM” value stood at 11.3%. For the molecule `O=C(c1cccs1)N1CCN(c2nc3ccccc3s2)CC1`, the “hERG current change (%, negative = inhibition) at 10uM” value worked out at 0.757%. As for `O=C1CN(C(=O)CSc2nnc(Nc3ccccc3)s2)c2ccccc2N1`, the “hERG current change (%, negative = inhibition) at 10uM” value was 0.255%. In the case of `CCc1cc(=O)oc2c3c(cc(OCC(=O)NCCCC(=O)O)c12)OC(C)(C)CC3`, the “hERG current change (%, negative = inhibition) at 10uM” value is listed as 10.5%.

Consider `CCN(Cc1cc2cc(OC)ccc2[nH]c1=O)C(=O)c1ccncc1`, for which the “hERG current change (%, negative = inhibition) at 10uM” value is reported as -21.1%.

Take `CCCNC(=O)N1[C@H]2CC[C@@H]1C(C(=O)OC)=C(c1cccc(C#N)c1)C2`: the “hERG current change (%, negative = inhibition) at 10uM” value amounted to 5.29%. For `Cc1cccc(C)c1N1CCN(CCn2c(=S)[nH]c3ccccc3c2=O)CC1` the value was 29.6%. Consider `Cl.NS(=O)(=O)c1ccc(CCNCc2cc(Cl)ccc2OCc2ccccc2)cc1`, for which the “hERG current change (%, negative = inhibition) at 10uM” value is on record as -74.5%. Consider `O=S(=O)(NC(=NC1CCCCC1)c1ccccc1)c1ccccc1`, for which the “hERG current change (%, negative = inhibition) at 10uM” value was -14.7%. As for `Cc1nc(-c2cccc(NS(=O)(=O)c3cccc4ccccc34)c2)cs1`, the “hERG current change (%, negative = inhibition) at 10uM” value is on record as 12.3%. For the molecule `C=CCn1c(C2CC2)n[nH]c1=S`, the “hERG current change (%, negative = inhibition) at 10uM” value is listed as -40.4%. With `Cc1ccc(NC2CCCN(C(=O)c3ccc(-n4ccnc4)cc3)C2)cc1C` (stereo not shown), the “hERG current change (%, negative = inhibition) at 10uM” value is recorded as -40.2%. With `CCCCCc1cc(O)c2c3c(c(=O)oc2c1)CN(C)CC3`, the “hERG current change (%, negative = inhibition) at 10uM” value was -33.1%. In the case of `Cc1ccc(S(=O)(=O)c2ccc(Cl)cc2)cc1S(=O)(=O)NC(C(=O)O)C(C)C` (stereo not shown), the “hERG current change (%, negative = inhibition) at 10uM” value is on record as 14.4%. The figure for `CCc1csc(CCNC(=O)C2CCC(=O)N(CCOC)C2)n1` (stereo not shown) is 18%; for `COc1cc(OC)cc(-c2c(-c3cccs3)c3cc(-c4ccc(N(C)C)nc4)ccc3n2C)c1` it is 10.2%; for `O=C(NCCCc1ccccc1)c1ccc(-n2cncn2)c([N+](=O)[O-])c1` it is -60.5%.

For the molecule `CCCCNC(=S)N1CCN(Cc2ccc3c(c2)OCO3)CC1.O=C(O)C(=O)O`, the “hERG current change (%, negative = inhibition) at 10uM” value is on record as -11%. In the case of `Cc1cc(-c2c(C(=O)N3CCOCC3)c(C)nn2-c2cccc(C(F)(F)F)c2)no1`, the “hERG current change (%, negative = inhibition) at 10uM” value is -1.26%.

Consider `CCOCCN1CCN(c2c(C)c(C)nc3cc(-c4cc(OC)cc(OC)c4)nn23)CC1`, for which the “hERG current change (%, negative = inhibition) at 10uM” value is -73.3%. Turning to `CCOc1ccc(/C=N/n2c(SC)nnc2-c2ccccc2)cc1OCC`, the “hERG current change (%, negative = inhibition) at 10uM” value was -25.6%. On to `CC(=O)Nc1cccc(NC(=O)CCNC(=O)c2ccc(Cl)cc2)c1`, for which the “hERG current change (%, negative = inhibition) at 10uM” value is recorded as 10.2%.

Turning to `Cc1ccc(NC(=O)c2cccc(NC(=O)/C=C/c3ccco3)c2)cc1C`, the “hERG current change (%, negative = inhibition) at 10uM” value is on record as 4.3%. On to `C=CCn1c2ccccc2c(=O)c2cc(C#CC[C@@H](C)O)ccc21`, for which the “hERG current change (%, negative = inhibition) at 10uM” value was -4.94%. The figure for `CCOc1ccc(CC(=O)Nc2ccc(S(=O)(=O)N3CCCC3)cc2)cc1` is 10.4%; for `CCOC(=O)N1C2=NC(C(=O)OC)=C(C(=O)OC)[C@@H]3N(Cc4ccccc4)c4ccccc4[C@]23C[C@H]1C(=O)OC` it is -17.1%. On to `S=c1[nH]nc(-c2ccncc2)n1/N=C/c1cccc(Cl)c1`, for which the “hERG current change (%, negative = inhibition) at 10uM” value is on record as 15.8%. For `O=C(NNC(=O)c1cc(C(F)(F)F)cc(C(F)(F)F)c1)c1ccc(Cl)cc1` the value was 4.89%; for `O=C(OCC(=O)N1CCC(Cc2ccccc2)CC1)c1ccccc1`, 8.88%.

With `Cc1c(C(=O)NCc2ccccn2)sc2nc(-c3ccccc3)cn12`, the “hERG current change (%, negative = inhibition) at 10uM” value was -18.6%. For `CCCCCC(=O)Nc1c(-c2ccc(OC)cc2)c(=O)c2ccccc2n1C` the value was 14.9%; for `O=C(c1cccc(S(=O)(=O)N2CCOCC2)c1)N1CCN(C/C=C/c2ccccc2)CC1`, -46.3%; for `CC(=O)N1CCC(C(=O)Nc2cc(C)cc(C)c2)CC1`, 3.74%. For `O=S(=O)(c1cccs1)N1CCC(CO)(Cc2cccc(F)c2)CC1`, the “hERG current change (%, negative = inhibition) at 10uM” value was -46.2%.

Turning to `Cc1ccc(S(=O)(=O)N2CCN(C(=O)CSc3ncn[nH]3)CC2)cc1`, the “hERG current change (%, negative = inhibition) at 10uM” value is reported as 14.8%. For `Cc1ccc(C)c(S(=O)(=O)N2CCN(C(=O)c3ccncc3)CC2)c1`, the “hERG current change (%, negative = inhibition) at 10uM” value is reported as 6.02%.
